Measurements: PubChem BioAssay AID651820 (National Center for Advancing Translational Sciences (NCATS), 2012)
Where “and” joins values, the source holds several entries; their conditions need not be identical. Equal values may be shown once. Hit rate of the full screen: of about 340,000 compounds, about 12,000 (3.5%) were called active. This list was built around the results that the source calls inconclusive (neither active nor inactive); the mix of calls is not that of the screen. Calls follow the shape of the dose curve; as a rule, active = well fitted inhibition curve with a large enough effect; inconclusive = small, poorly fitted or top-dose-only effect, or another doubt; inactive = no such curve, though single readings can be large or run the other way. A potency beside an inconclusive call is a rough fit, not a confirmed value.

Experiment: qHTS Assay for Inhibitors of Hepatitis C Virus (HCV)
Conditions: Huh7.5.1 HCVcc-Cre (HCVcc is cell-culture hepatitis C virus) infection, luciferase reporter, 44 h; activity change, negative = inhibition: at 41.8 µM (top of the series)
In short: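 Compounds are dispensed onto cells plated 4 h earlier at 1,000 per well, with HCVcc-Cre virus (about 0.5 moi) added next. Following 44 h of culture, luminescent signal is measured for 15 sec after 15 min with substrate at room temperature.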
% is scaled to controls: 0 for no effect and ±100 for the full control effect; potency is read from the fitted curve at half-maximal effect; tags tell the direction and shape of the fitted curve.

Row | Compound | activity change, negative = inhibition | Potency
1 | CCOC(=O)C1CCN(c2ncnc3c2cnn3-c2ccccc2)CC1 | inactive: -0.697% | 
2 | Cc1cccn2c(=O)c3cc(C(=O)NC4CCCCC4)c(=N)n(CCN4CCOCC4)c3nc12 | inactive: 2.14% | 
3 | COc1ccccc1C(=O)N1CCN(CCNC(=O)C(=O)Nc2ccc(Br)c(C)c2)CC1 |  | inconclusive: 11.2 µM [inhibitor, partial curve]
4 | CCCN(CC(=O)Nc1cc(Cl)cc(Cl)c1)CC(=O)Nc1ccc(F)c(F)c1F |  | inconclusive: 31.6 µM [inhibitor, single point]
5 | Cn1cccc1/C=N/NC(=O)c1ccco1 | inactive: 2.87% | 
6 | O=C(O)C1CC(=O)N(CCOc2ccccc2)C1 (centres undefined) | inactive: 9.78% | 
7 | CCOC(=O)c1c(NC(=O)Nc2ccc(C)cc2)sc2c1CCN(C)C2 | inconclusive: -59% [inhibitor] | 
8 | Cc1ccc(NC(=O)CCNS(=O)(=O)c2ccc(Br)s2)cc1 |  | inconclusive: 31.6 µM [inhibitor, single point]
9 | C=C(C)c1cccc(C(C)(C)NC(=O)Nc2ncccn2)c1 |  | inconclusive: 3.16 µM [inhibitor, partial curve]
10 | COc1ccc(NC(=S)N(CCCN2CCC(C)CC2)Cc2cccs2)cc1 |  | inconclusive: 11.2 µM [inhibitor, partial curve]
11 | COC(=O)c1ccccc1NC(=O)c1ccccc1OC |  | active: 11.2 µM
12 | CNCCCC1c2ccccc2C=Cc2ccccc21 |  | inconclusive: 22.4 µM [inhibitor, single point]
13 | COc1ccccc1N1CCN(C(=O)/C=C/c2c(Cl)nc3ccccn23)CC1 |  | active: 11.2 µM
14 | COc1cccc(/C=C2/C(=O)NN(c3ccccc3)C2=O)c1 |  | inconclusive: 5.01 µM [inhibitor, single point]
15 | CC(C)(C)n1nnnc1C(c1cccs1)N1CCN(c2ccccc2)CC1 (centres undefined) | inactive: 3.4% | 
16 | COc1ccc(N(CC(=O)N2CCN(C)CC2)S(=O)(=O)c2cc(C)ccc2OC)cc1Cl | inactive: -10.1% | 
17 | COc1ccc(C(C)=O)cc1COC(=O)c1c(C)noc1C |  | active: 10 µM
18 | CN(C(=O)c1ccc(-c2ccccc2)cc1)C1CCCCC1 | inactive: -19.8% | 
19 | CCCNC(=O)c1ccccc1NC(=O)C1COc2ccccc2O1 (centres undefined) |  | inconclusive: 0.316 µM [inhibitor, full curve, poor fit]
20 | Cc1cc(C(=O)Nc2ccc3c(c2)CCC3)ccc1[N+](=O)[O-] |  | inconclusive: 11.2 µM [inhibitor, partial curve, poor fit]
21 | Cc1ccc(Br)cc1S(=O)(=O)N1CCN(c2ccccc2)CC1 |  | inconclusive: 10 µM [inhibitor, single point]
22 | Cc1ccccc1Nc1nc(N)nc(CSc2nc3ccccc3c(=O)n2CCCO)n1 |  | inconclusive: 10 µM [inhibitor, partial curve]
23 | Cc1ccc2c(c1)C(=O)C(=O)N2Cc1ccc(Br)cc1 |  | inconclusive: 11.2 µM [inhibitor, partial curve]

Row | Compound | activity change, negative = inhibition | Potency
24 | Cc1ccc(S(=O)(=O)N2CCOCC2)cc1NC(=O)COC(=O)c1cnc(Cl)c(Cl)c1 | inactive: -3.29% | 
25 | Cc1cccc2sc(N(CCN3CCOCC3)C(=O)CCS(=O)(=O)c3ccccc3)nc12 | inactive: 1.59% | 
26 | CN(c1ccccc1)S(=O)(=O)c1cccc(NC(=O)c2nn(C)c(=O)c3ccccc23)c1 |  | active: 4.47 µM
27 | CC(=O)c1sc(NC(=O)c2ccc(F)c(F)c2)nc1C |  | inconclusive: 31.6 µM [inhibitor, single point]
28 | Cn1cccc1/C=C1\CC(C(C)(C)C)C/C(=C\c2cccn2C)C1=O (centres undefined) |  | active: 2.51 µM
29 | CCN(CC)C(=O)c1ccc(C(=O)c2ccccc2)cc1 |  | inconclusive: 31.6 µM [inhibitor, single point]
30 | CCCn1nnc(NC(=O)c2cccc(OCc3ccccc3)c2)n1 |  | inconclusive: 7.94 µM [inhibitor, partial curve, poor fit]
31 | O=C(CN1CCSC1=NCc1ccccc1)c1ccccc1 |  | inconclusive: 11.2 µM [inhibitor, partial curve]
32 | O=C1NC(c2ccccc2)=N/C1=C/c1ccco1 | inactive: -15.8% | 
33 | Cc1cc(C)n2nc(C(=O)Nc3ccc(S(=O)(=O)N4CCCC4)cc3)nc2n1 |  | inconclusive: 31.6 µM [inhibitor, single point]
34 | Cc1ccc(C(=O)NC(=S)Nc2ccc(CN3CCOCC3)cc2)cc1 |  | inconclusive: 31.6 µM [inhibitor, single point]
35 | O=C(Nc1ccc(OC(F)(F)F)cc1)NC1CCC(Oc2ccc(C(=O)O)cc2)CC1 (centres undefined) | inactive: -5.84% | 
36 | COc1ccc2cc(C(C)C(=O)Nc3cccc(S(=O)(=O)N(C)C)c3)ccc2c1 (centres undefined) |  | active: 25.1 µM
37 | CCOc1ccc(C(C)=O)cc1N1C(=O)C2C3C=CC(O3)C2C1=O (centres undefined) |  | inconclusive: 31.6 µM [inhibitor, single point]
38 | COc1ccc(C)cc1NC(=O)Nc1ccc2c(c1)CCC2 |  | inconclusive: 0.891 µM [inhibitor, full curve, poor fit]
39 | CCN(CC)CCN1C(=O)C(=O)/C(=C(/O)c2cnn(-c3ccccc3)c2C)C1c1ccc(C)o1 (centres undefined) | inactive: 15% | 
40 | O=C(Nc1nc(-c2ccc(Cl)s2)cs1)c1ccccc1 |  | inconclusive: 22.4 µM [inhibitor, single point]
41 | Oc1ccc(/C=C/c2ccc3cccc(O)c3n2)cc1Br |  | inconclusive: 22.4 µM [inhibitor, single point]
42 | CN1CCc2c(sc3c2c(=O)n(-c2ccccc2)c2nnc(SCc4ccc(Cl)cc4)n32)C1 |  | inconclusive: 3.55 µM [inhibitor, partial curve]
43 | NNc1nc(-c2ccccc2)cc(-c2ccccc2)n1 |  | active: 12.6 µM
44 | CN1CCc2c(OCc3ccc(F)cc3)cccc2C1=O |  | inconclusive: 2.24 µM [inhibitor, full curve]
45 | Cc1ccc2c(COC(=O)c3ccccc3OC(F)F)cc(=O)oc2c1 | inactive: 7.48% | 
46 | COc1ccc(C2Nc3ccccc3C(=O)N2c2ccccc2)cc1CSc1ccccn1 (centres undefined) | inactive: 12.9% | 

Row | Compound | activity change, negative = inhibition | Potency
47 | C/C(=N\NC(=O)c1ccccc1)c1c(C)[nH]n(-c2ccccc2)c1=O |  | inconclusive: 31.6 µM [inhibitor, single point]
48 | CCNCc1cc(Cl)c(OCc2ccccc2)c(OCC)c1 |  | inconclusive: 11.2 µM [inhibitor, partial curve]
49 | Cc1ccc(C(=O)NCCc2cccc(Cl)c2)cc1[N+](=O)[O-] |  | inconclusive: 31.6 µM [inhibitor, single point]
50 | Cc1nn(Cc2ccc(C(=O)NC(C)(C)C)o2)c(C)c1Br |  | inconclusive: 3.55 µM [inhibitor, full curve]
51 | COc1ccc(C(=O)Nc2ccccc2N2CCN(C(=O)C(C)C)CC2)cc1Cl |  | inconclusive: 25.1 µM [inhibitor, partial curve]
52 | COc1cc(C(=O)NC(=S)Nc2ccc(N3CCCC3)cc2)cc(OC)c1OC |  | inconclusive: 2 µM [inhibitor, partial curve]
53 | C[C@]12CCC(=O)C=C1CC[C@@H]1[C@@H]2[C@@H](O)C[C@@]2(C)[C@H]1CC[C@]2(O)C(=O)CO |  | inconclusive: 3.55 µM [inhibitor, single point] and inconclusive: 31.6 µM [inhibitor, single point]
54 | O=C(Nc1cccc(NC(=O)c2cccs2)c1)c1ccc(Br)cc1 |  | inconclusive: 8.91 µM [inhibitor, partial curve]
55 | Cc1ccc(-n2ncc3c2CCCC3NC(=O)CCCN2CCCCC2=O)cc1C (centres undefined) |  | inconclusive: 17.8 µM [inhibitor, single point]
56 | O=C1N[C@@H](Cc2ccccc2)COC(=O)[C@H](Cc2ccc(F)cc2)CC/C=C/C[C@@H]1CC(=O)N(CCO)Cc1ccccc1 |  | inconclusive: 31.6 µM [inhibitor, single point]
57 | COc1ccc(C2=CC(=O)CC(C)(C)C2)cc1OC |  | inconclusive: 7.94 µM [inhibitor, partial curve, poor fit]
58 | C/C=C(\C)C(=O)Nc1cccc(C2=NOC3(C2)C[C@H](C(N)=O)N(C(=O)C(c2ccccc2)c2ccccc2)C3)c1 (some centres undefined) |  | inconclusive: 11.2 µM [inhibitor, partial curve]
59 | C/C(=N/NC(=O)CNS(=O)(=O)c1ccccc1)c1ccc(Br)cc1 | inactive: 18% | 
60 | CC(=O)Nc1ccc2nc(NC(=O)COc3ccccc3Cl)sc2c1 |  | inconclusive: 0.501 µM [inhibitor, full curve, poor fit]
61 | CCCOC(=O)Nc1cccc(C(C)=O)c1 |  | inconclusive: 3.55 µM [inhibitor, single point]
62 | CCOC(=O)c1ccc(Oc2nc(NC(C)(C)C)nc(N(C)C)n2)cc1 |  | inconclusive: 14.1 µM [inhibitor, partial curve]
63 | COc1ccc(N2CCN(C(c3cccs3)C(C)NS(=O)(=O)c3ccccc3)CC2)cc1 (centres undefined) |  | inconclusive: 7.08 µM [inhibitor, partial curve]
64 | O=C(Nc1nc2ccccc2[nH]1)c1ccc(Cl)cc1 |  | inconclusive: 31.6 µM [inhibitor, single point]
65 | Cc1ccc(CNc2nc(C)c(C(=O)N(C)C)s2)cc1 | inactive: -15.8% | 
66 | O=C(Nc1ccccc1)c1ccc(-c2ccc(Br)cc2)o1 |  | inconclusive: 12.6 µM [inhibitor, partial curve]
67 | C=CCN(C(=O)Cc1cccs1)c1nc(-c2ccc(S(C)(=O)=O)cc2)cs1 |  | inconclusive: 10 µM [inhibitor, partial curve]
68 | Cc1cc(C)c(S(=O)(=O)Nc2cc(SCC(=O)O)c(O)c3ccccc23)cc1C |  | inconclusive: 14.1 µM [inhibitor, single point]
69 | COc1ccc(-c2cc(C(=O)NC3CCCC3)no2)cc1OC | inactive: -14.9% | 
